Data on 18 compounds can be found in PubChem BioAssay (NCATS).

“And” between values parts separate entries of the source, which are not always exact repeats. Equal entries are not always repeated. Some of the results follow. These are further read-outs of the screen, such as a control signal, another cell line or another target. No call is given for them. Compounds called inactive in the main read-out are mostly missing here. The note in brackets gives the kind of curve behind each potency; many fits are weak.

A short description of this test: qHTS Assay for Lipid Storage Modulators (AID 1519). The note with it: Drosophila S3 cells, BODIPY lipid droplet/cell ratio, laser cytometry, cells loaded with oleic acid. A digest of the protocol:
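Cells seeded at 5,000 per well were treated with compounds over a concentration series and loaded with oleic acid (400 uM, as added). Lipid droplet fluorescence (488 nm excitation, 500-530 nm channel) was read by laser-scanning cytometry and normalized to 20 uM Triacsin C.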
For orientation: In qHTS, concentration-response curves come from the screen itself.

Where [1] appears, read: measured here: cell count channel max response.
The mark [2] stands for this setting: measured here: cell number channel AC50.
The mark [3] stands for this setting: measured here: lipid (BODIPY) channel AC50.
[4] abbreviates: measured here: lipid channel max response.
Tags describe the fitted curve by direction and shape.

As for `CC(C)(C)NCC(O)c1cc(O)cc(O)c1` (configuration not stated), the max response is, setting by setting: under setting [1], 28.2% and -13.3%; under setting [4], 39.1% and -12.7%. In addition, the AC50 by setting is: under setting [2], 0.562 µM [falling, full curve, poor fit]; under setting [3], 39.8 µM [rising, single point] and 562 nM [falling, full curve, poor fit].
`FC(F)(F)c1ccccc1-c1nccc(-n2ccnc2)n1`: the max response stood at 30.1% under setting [1] and 32.9% under setting [4]. For the same compound, the AC50 is, setting by setting: under setting [2], 0.447 µM [rising, full curve, poor fit]; under setting [3], 0.398 µM [rising, full curve, poor fit].
With `COc1cc(O)c2c(=O)cc(-c3ccccc3)oc2c1`, the max response worked out at 85.8% under setting [1] and 109% under setting [4]. In addition, the AC50 under setting [2] is 12.6 µM [rising, partial curve] and the AC50 under setting [3] is 12.6 µM [rising, partial curve].
For `CN(C)c1ncnc2ccc(-c3cccc(NS(C)(=O)=O)c3)cc12`, the max response reads like this: under setting [1], 20.1%; under setting [4], 19.8%. Further, the AC50 reads like this: under setting [2], 6.31 µM [rising, single point]; under setting [3], 7.08 µM [rising, single point].
Regarding `CC#C[C@]1(O)CC[C@H]2[C@@H]3CCC4=CC(=O)CCC4=C3[C@H](c3ccc(N(C)C)cc3)C[C@@]21C`, the max response runs as follows: under setting [1], 95.7%; under setting [4], 122%. The AC50 by setting is: under setting [2], 8.91 µM [rising, partial curve]; under setting [3], 11.2 µM [rising, partial curve].
Take `COc1ccccc1CC(Cc1nc2ccccc2[nH]1)c1nc2ccccc2[nH]1` (configuration not stated): the max response came to 99.9% under setting [1] and 132% under setting [4]. Further, the AC50 is 3.55 µM [rising, full curve] under setting [2] and 4.47 µM [rising, partial curve] under setting [3].
As for `COc1cccc(-c2nccc(NCCc3c[nH]c4ccc(OC)cc34)n2)c1`, the max response runs as follows: under setting [1], 11%; under setting [4], 13%. Moreover, the AC50 is, setting by setting: under setting [2], 1.12 µM [rising, partial curve]; under setting [3], 0.794 µM [rising, full curve].
Turning to `Cc1noc(C)c1-c1nccc(NC2CC2)n1`, the max response is, setting by setting: under setting [1], 28.1%; under setting [4], 33.7%. The AC50 runs as follows: under setting [2], 0.355 µM [rising, full curve]; under setting [3], 0.398 µM [rising, full curve].
For the compound `O=c1c(-c2cccs2)nc2cnc(N3CCNCC3)nc2n1CCc1ccccc1`, the max response is -0.203% under setting [1] and -4.85% under setting [4]. The AC50 by setting is: under setting [2], 0.708 µM [rising, single point]; under setting [3], 0.631 µM [rising, full curve, poor fit].
Regarding `O=S(=O)(c1ccccc1)N1CCC2(CCN(c3ncccn3)CC2)CC1`, the max response reads like this: under setting [1], 22.6%; under setting [4], 34.5%. For the same compound, the AC50 is 6.31 µM [rising, partial curve, poor fit] under setting [2] and 0.00794 µM [rising, full curve, poor fit] under setting [3].
`COc1ccc2[nH]cc(CCNc3nc(-c4cccc(C#N)c4)nc4ccccc34)c2c1`: the max response under setting [1] is 13.9% and the max response under setting [4] was determined as 21.9%. In addition, the AC50 under setting [2] is 0.0794 µM [rising, full curve] and the AC50 under setting [3] is 0.0631 µM [rising, full curve].
For `COc1cccc(Cn2c(=O)c(-c3ccc(Cl)cc3)nc3cnc(N4CCOCC4)nc32)c1`, the max response reads like this: under setting [1], 31.7%; under setting [4], 41.4%. Besides, the AC50 is 1.41 µM [rising, full curve, poor fit] under setting [2] and 0.891 µM [rising, full curve] under setting [3].
For the compound `Cc1ccccc1-c1ccc2ncnc(-n3ccnc3)c2c1`, the max response was 24.3% under setting [1] and 26.9% under setting [4]. Further, the AC50 under setting [2] was 0.631 µM [rising, full curve, poor fit] and the AC50 under setting [3] was 1.58 µM [rising, partial curve].
For the compound `COc1ccc(Oc2ncc3nc(-c4ccc(F)cc4)c(=O)n(C4CC4)c3n2)cc1`, the max response under setting [1] worked out at 11.3% and the max response under setting [4] came to 19%. In addition, the AC50 is 8.91 µM [rising, single point] under setting [2] and 6.31 µM [rising, single point] under setting [3].
Regarding `Cc1cnc(CNc2ccnc(-c3ccoc3)n2)cn1`, the max response under setting [1] is 12.3% and the max response under setting [4] came out at 25.4%. Further, the AC50 is 3.98 µM [rising, partial curve, poor fit] under setting [2] and 3.16 µM [rising, partial curve, poor fit] under setting [3].
For `N[C@H](C(=O)O)[C@@H]1[C@@H](C(=O)O)C1(F)F`, the max response came to 40.5% under setting [1] and 53.8% under setting [4]. Moreover, the AC50 reads like this: under setting [2], 14.1 µM [rising, full curve, poor fit]; under setting [3], 15.8 µM [rising, full curve, poor fit].
Regarding `CC#CCOC(=O)c1c(C)nc2sc3c(c2c1N)CC[C@@H](O)C3`, the max response runs as follows: under setting [1], 109%; under setting [4], 139%. Also, the AC50 under setting [2] was 1 µM [rising, full curve] and the AC50 under setting [3] was 0.891 µM [rising, full curve].
Turning to `Cc1c(C2CCN(CCc3ccccc3)CC2)noc1-c1ccc(Cl)cc1`, the max response turned out to be 70% under setting [1] and 93.4% under setting [4]. Moreover, the AC50 runs as follows: under setting [2], 0.794 µM [rising, full curve, poor fit]; under setting [3], 0.794 µM [rising, full curve, poor fit].

As usually defined, the AC50 is the concentration at which the activity in the assay is half-maximal.
